The chains are these.
B1: chr10:102404582:102404727:-|CDS|ENSG00000059915|control|control|control (ssRNA)
RNA: GGGAGUUCUACAGUCCGACGAUCAUCACUCGCAUCAAUGUAGUAGCCGCUAUGUUCUCUGCGCCCCCCUUCCCAGCUGCUGUUAGCUCCCAAAAGAAGUUCAGCCGCCCUCUCCUGCCCAGCGCUGCCACCCGCCUCUCCCAGCAACAGAGGAUUGAGCAUCA
B2: chr11:65967286:65967395:+|CDS|ENSG00000175467|unk|total|mutant (ssRNA)
RNA: GGGAGUUCUACAGUCCGACGAUCGACCUUUAAAAAGACCAAGCGGAGGGUGAAGAAAAUCCGCAAGAAGGAGAAGGAGGCCGCCGUGCGGGCAGAUGACUUGCUGCCUCUCGGGGACCAGACUCAGGAUGGGGACUUUGGUUCCAACAGAGGAUUGAGCAUCA
B3: ENSG00000109133:stop:overlap|stop_codon|ENSG00000109133|stop_codon|NA|stop_codon (ssRNA)
RNA: GGGAGUUCUACAGUCCGACGAUCUGAGAAGACUUUGUCUCCAGAGCAUUGCCUUUAUAAGCAGAUUGGCACCAACAGUUCCAUAGUUUAACAUCUAGUUAAGCUACAAAUAUAGUAUAAGCAUUAUUAGCAGCUGGUACUUCUCAACAGAGGAUUGAGCAUCA
B4: chr19:19296988:19297344:-|CDS|ENSG00000105705|control|control|control (ssRNA)
RNA: GGGAGUUCUACAGUCCGACGAUCCUCCGCAGCCACCGUGAAGAGGAAGCGGAAGAGCCGGUGGGGGCCUGAAGAGGAUAAGGUAGAGCUCCCACCUGCUGAACUGGUGCAGAGGGACGUGGAUGCCUCUCCCUCGCCUCUGUCCAACAGAGGAUUGAGCAUCA
B5: chr1:25831912:25832087:-|three_prime_utr|ENSG00000127423|control|control|control (ssRNA)
RNA: GGGAGUUCUACAGUCCGACGAUCGACUGAGUUUGCAGAGCUGAGGGUUGUCAAUUUCCUUUUCUACUGAUAUCUUCUUCCUUUAGAGCAAACUUCCUCCUUAGGACCUCAGAGAUAAGCACAGCAGGGUCUUCCUCCUUCAAUCAACAGAGGAUUGAGCAUCA
B6: chr17:39471515:39471616:+|CDS|ENSG00000167258|unk|total|mutant (ssRNA)
RNA: GGGAGUUCUACAGUCCGACGAUCUUGCCUCCAAUACCAGCUCUUCCACAGCAACCACCUCUGCCUCCUUCUCAGCCAGCAUUCCGUCAGGUUCCUGCUUCCAGUACUUCAACUUUGCCCCCUUCUACUCACUCAAAGACAUCUCAACAGAGGAUUGAGCAUCA
B7: chrX:152166439:152166540:-|3pUTR|ENSG00000011677|unk|total|mutant (ssRNA)
RNA: GGGAGUUCUACAGUCCGACGAUCCACCACAAGCAGAUUCUCCCUGCCCACCGGCUGAACAAAGCUCCUAAGGGGUGUAUCAUCCGCUGCUGGUUGCCUUUUCAUCCAUCCUUUCCCCGUCCCCUGCUUCCUUGCCAUUGCUGGCAACAGAGGAUUGAGCAUCA
B8: chr17:2060671:2060772:-|3pUTR|ENSG00000070366|unk|total|mutant (ssRNA)
RNA: GGGAGUUCUACAGUCCGACGAUCCCGUGCUCUCGGGUGGCCUCCACCUGCUCCCUCUCUCCUCACUGGCCUUUCUUUCCGUCCCGCUUCCUCUUCAGGAAAUGUCCUGACUCCCCUCAGCUCCCCCUUCACCCCUCCUUGCCCCAACAGAGGAUUGAGCAUCA
B9: chr2:37079119:37079331:-|CDS|ENSG00000008869|control|control|control (ssRNA)
RNA: GGGAGUUCUACAGUCCGACGAUCAGUAGUUCACCUGGACCACCUACACGAAAAUUAUUAGCUAAAAAUCUCGCAGCCCUUUAUAGCAUUGGGGAUACUUUCACAGUUUUUCAGACACUUGAUAAAUGCAAUGACAUUAUCAGACAACAGAGGAUUGAGCAUCA
B10: ENSG00000124205:stop:overlap|stop_codon|ENSG00000124205|stop_codon|NA|stop_codon (ssRNA)
RNA: GGGAGUUCUACAGUCCGACGAUCCCAACAGAGGCCUGUGUCAAAGGAGGUUGAAGUCAAGGACCAACAAAGCAAGCAGGCUUUAGACCUCCACCAUCCAAAGCUCAUGCCCGGCAGUGGACUCGCCCUCGCUCCAUCUACCUGCAACAGAGGAUUGAGCAUCA
B11: chr15:93027272:93027374:+|3pUTR|ENSG00000173575|unk|FALSE|unique (ssRNA)
RNA: GGGAGUUCUACAGUCCGACGAUCCCAGGAAUCUGUGAGGAUGGUAUUCCCUGGAGUCUGGCUUUGAAAGAUUUCAUUGUUGGUAGAAAUAACAGGUUGAGAAAGAGGGAGUUAGCAUCACCUAAAACCUGCACGUGAACAAGGCAACAGAGGAUUGAGCAUCA
B12: chr2:74529670:74529771:-|5pUTR|ENSG00000115307|unk|total|mutant (ssRNA)
RNA: GGGAGUUCUACAGUCCGACGAUCUCUCCGCCGGACGCGAGUUGUGAGACGGCCCAAGGGGCCGCGGGGUAUGCUGGGACCGCCCGCCCUUCCGGCGCGCCUCAGGACUUCGGGUCCCCUCACCCCGGGCGGAUGCCCAAAGACCAACAGAGGAUUGAGCAUCA
B13: chr2:216122066:216122255:+|CDS|ENSG00000079246|unk|FALSE|unique (ssRNA)
RNA: GGGAGUUCUACAGUCCGACGAUCCCAUGGGCCUUCCUUUCCACUAAAAGGAAUUACCGAACAGCAAAAAGAAGGUCUUGAGAUAGUGAAAAUGGUGAUGAUAUCUUUAGAAGGUGAAGAUGGGUUGGAUGAAAUUUAUUCAUUCAACAGAGGAUUGAGCAUCA
B14: chr12:88493871:88493972:-|3pUTR|ENSG00000049130|msi1|FALSE|unique (ssRNA)
RNA: GGGAGUUCUACAGUCCGACGAUCAAGUAUCUUGACCAUAAAAAGUCAUUGCUGUUCUUGUUUCUAAUGUAAAUAGUGUCCAUUAGUAAAAGUGAAAUUCAGUCUUAAGUAGGGUGAAUUGGAUCACCAUUUACACAAGAGAUGCAACAGAGGAUUGAGCAUCA
B15: chr19:12875797:12875908:-|3pUTR|ENSG00000105612|unk|total|mutant (ssRNA)
RNA: GGGAGUUCUACAGUCCGACGAUCUUCGAGACCAGCCUGGGCUACACCGUGAGACCACAUCUCUACCCGAACUUAAAAAAAGUCCGCCAGGCACGGUGAUAAAUGCCUGCCGUCCCAGCCACUGAAGCCAGAGGAUCGAUUGAACAACAGAGGAUUGAGCAUCA
B16: chr20:3933335:3933436:-|3pUTR|ENSG00000101236|msi1|FALSE|bound_elsewhere (ssRNA)
RNA: GGGAGUUCUACAGUCCGACGAUCUUACAACACCUGCUAUCAAAUCAUCUAAGCUGAAAACAUGAGAUGCGCUUGGAAAGGCCUAGUCAGAAGCCAUUUCCUCUUAUCAUUUCCCUCUCCUAUGCACCAGUAAGGCCCGUCCAGCAACAGAGGAUUGAGCAUCA
B17: chr7:99177919:99178066:-|CDS|ENSG00000185467|control|control|control (ssRNA)
RNA: GGGAGUUCUACAGUCCGACGAUCGAGAAACGGUCUGAGAAGGAAAACCUGUGUCUUCUGAUAGAAGAACUUGGUGGGAUCGAUAGAAUUGAGGCUUUACAGCUGCAUGAGAACCGUCAAAUUGGCCAGUCGGCUUUGAACAUCCAACAGAGGAUUGAGCAUCA
B18: chr20:31606305:31606406:+|3pUTR|ENSG00000125968|msi1|total|mutant (ssRNA)
RNA: GGGAGUUCUACAGUCCGACGAUCUGAGGCACUGGCGAGGAGAGGGCGCUCCUCUCUGCACACCUACCCGUCACCAGAGACUUCCGGGGGUGGGAUUCCACUCGUGUGUUUCUAUUUUUUGAAAAGCAGACAUUUUAAAAAAUGCAACAGAGGAUUGAGCAUCA
B19: chr4:112268257:112268372:+|CDS|ENSG00000138660|unk|FALSE|unique (ssRNA)
RNA: GGGAGUUCUACAGUCCGACGAUCAGUAAUCCUACAUCAGCCUCUGAUGAUUCCAAUGGGCUGGAGUGGGAAAAUGAUUUUGUUAGUGCCGAAAUGGAUGAUAAUGGAAAUUCCGAGUAUUCUGGAUUUGUAAAUCCUGUAUUACAACAGAGGAUUGAGCAUCA

19 molecules from article PMC12136788 can be followed below.

The other results are listed elsewhere or left out.

This test deals with T1, UNK ZnF1-6 (called full-length) (human, UniProt Q9C0B0 30-357).
T1 sequence: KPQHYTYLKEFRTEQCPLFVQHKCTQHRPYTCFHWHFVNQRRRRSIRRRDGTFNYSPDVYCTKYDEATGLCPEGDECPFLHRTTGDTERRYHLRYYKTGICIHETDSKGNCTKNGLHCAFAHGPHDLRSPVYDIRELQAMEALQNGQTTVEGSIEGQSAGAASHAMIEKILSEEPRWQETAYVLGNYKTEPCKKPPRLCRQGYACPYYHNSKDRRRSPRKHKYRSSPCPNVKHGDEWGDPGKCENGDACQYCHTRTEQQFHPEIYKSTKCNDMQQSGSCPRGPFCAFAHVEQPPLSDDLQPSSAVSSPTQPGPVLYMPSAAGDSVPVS
The test is described as follows: nsRBNS (natural sequence RNA bind-n-seq); RBNS binding buffer (assumed for nsRBNS): 25 mM Tris pH 7.5, 150 mM KCl, 3 mM MgCl2, 0.01% Triton X-100, 500 ug/ml BSA, 20 U/ml SUPERase-In, 4 C; UNK is unkempt and MSI1 is Musashi-1; names of the RNAs are library labels; protein concentration not given here; high values mean tight binding.
Molecule B1 came in with a binding signal of 1.22 enrichment R. The molecule B2 showed a binding signal of 1.13 enrichment R. B3: the binding signal was 0.93 enrichment R. Under B4 stands 0.595 enrichment R. On to B5, for which the binding signal turned out to be 0.642 enrichment R. Next, B6: 1.11 enrichment R; B7: 0.903 enrichment R.

Regarding B8, the binding signal is 1.21 enrichment R. B9 showed a binding signal of 0.798 enrichment R. With B10, the binding signal amounted to 0.854 enrichment R. Turning to B11, the binding signal is 0.605 enrichment R. As for B12, the binding signal turned out to be 0.575 enrichment R. Consider B13, for which the binding signal was determined as 0.417 enrichment R. B14 had a binding signal of 0.337 enrichment R.

In turn, B15 had a binding signal of 0.604 enrichment R. As to B16, the binding signal was found to be 0.531 enrichment R.

B17 registered a binding signal of 0.691 enrichment R.

B18: the binding signal amounted to 0.735 enrichment R. As to B19, the binding signal was determined as 0.32 enrichment R.
